Test results as given in PubChem BioAssay AID1461 (National Center for Advancing Translational Sciences (NCATS), 2008).
Among all 220,000 compounds or so, about 2,300 (1%) were called active. The shares of active, inactive and inconclusive entries below differ from those in the screen. Calls follow the shape of the dose curve; as a rule, active = well fitted inhibition curve with a large enough effect; inconclusive = small, poorly fitted or top-dose-only effect, or effect the other way; inactive = no such curve, though single readings can be large or run the other way. Potencies of inconclusive entries are left out as doubtful fits.

Biological target: Neuropeptide S receptor (Homo sapiens) (UniProt Q6W5P4)
Test: qHTS Assay for Antagonists of the Neuropeptide S Receptor: cAMP Signal Transduction; also: nearly all actives have a fitted effect of over 50% in size
Conditions: CHO-NPSR cells, cAMP TR-FRET, antagonist mode; activity change, negative = inhibition: at 38.3 µM (top of the series) unless noted
Text: NIH Chemical Genomics Center [NCGC] NIH Molecular Libraries Probe Production centers Network [MLPCN] MLPCN Grant: X01-DA026210-01 Assay Submitter (PI): Heilig, Markus Alexander NCGC Assay Overview: Neuropeptide S receptor (NPSR), previously known as GPR154, is a recently de-orphanized G protein coupled receptor. Its endogenous ligand is the 20 amino acids peptide Neuropeptide S (NPS). […] NPS and its receptor are found in various tissues. Specifically they are highly expressed in brain areas that have been implicated in modulation of arousal, stress and anxiety. Central administration of NPS in mice produces an unusual profile of activity by inducing wakefulness and arousal, while at the same time suppressing anxiety. Therefore, NPSR may represent a novel drug target for the treatment of sleep and anxiety disorders. To identify NPSR antagonists, we developed a cell-based cAMP assay. NPS can stimulate the production of cAMP in Chinese hamster ovary cells stably expressing NPS receptor. This change in intracellular cAMP level can be detected by a homogeneous LANCE cAMP assay based on the TR-FRET (time resolved fluorescence resonance energy transfer) between a europium-labeled cAMP tracer complex and a cAMP-specific antibody labeled with Alexa Fluor 647. The europium-labeled cAMP tracer complex is formed by the tight interaction between Biotin-cAMP (b-cAMP) and streptavidin labeled with Europium-W8044 chelate (Eu-SA). Light pulse at 320 nm excites the europium of the cAMP tracer and the energy emitted is transferred to the Alexa molecule bound to the cAMP antibody, generating a TR-FRET signal at 665 nm. Residual energy from the europium will produce a light at 620 nm. The native unlabeled cAMP from cell lysates competes with the europium-cAMP tracer for antibody binding and reversely reduces the emission signal of Alexa by interrupting FRET between the two labeled molecules. Both emission signals from the FRET donor (620 nm) and the acceptor (665 nm) can be detected by a plate reader in the TRF mode. Expression of result in fluorescence ratio (665 nm/620 nm) helps to normalize differences due to cell density and reagent dispensing. This assay was successfully optimized to a 1536-well plate format.
NCGC Assay Protocol Summary: A Chinese hamster ovary (CHO) cell line stably expressing the NPS receptor (CHO-NPSR) was obtained from Dr. Heilig lab at NIAAA and maintained in F-12 Kaighn's media (Invitrogen, Carlsbad, CA, 21127) supplemented with 10 % FBS, 100 units/ml penicillin, 100 ug/ml streptomycin and 250 ug/ml geneticin at 37C, 5% CO2 in a humidified atmosphere. Before the assay, aliquots of cells were frozen and stored at -135C. The assay was performed in 1536-well format. Data are reported for both the ratio of the two emission wavelengths, and also for the component 'donor' channel, Em2=620. Data were normalized to the controls for basal activity (DMSO only) and 100% inhibition (No NPS control). IC50 values were determined from concentration-response data modeled with the standard Hill equation. NPS 1536-well assay protocol: (1) Fresh or frozen CHO-NPSR cells were suspended in F-12 Kaighn's media supplemented with 10 % FBS, 100 units/ml penicillin and 100 ug/ml streptomycin. Cells were plated at 4 ul/well (1200 cells) to white, tissue culture treated 1536-well plates, and then cultured at 37C, 5 % CO2 for 16 to 30 hours. (2) Add 23 nl/well of compound in DMSO solution. The final titration for each compound was between 0.6 nM and 46 uM. (3) Add 1 ul of stimulation reagent (1X HBSS buffer, 5 mM HEPES, 0.1% BSA, 500 uM RO-201724 (Sigma-Aldrich, B8279), 1.5% Alexa 647-labeled anti-cAMP antibody (from Perkin Elmer), 100 nM NPS) (4) Incubation at 37C, 5 % CO2 for 60 min. (5) Add 1 ul/well detection reagent. Detection reagent was prepared by adding biotin labeled cAMP (4%), streptavidin labeled with Europium-W8044 chelate (1.33%) and TritonX-100 (1%) to detection buffer. […]
% is scaled to controls: 0 for no effect and ±100 for the full control effect; potency is read from the fitted curve at half-maximal effect; tags tell the direction and shape of the fitted curve.

Sequence of UniProt Q6W5P4 (Q6W5P4 whole entry, looked up): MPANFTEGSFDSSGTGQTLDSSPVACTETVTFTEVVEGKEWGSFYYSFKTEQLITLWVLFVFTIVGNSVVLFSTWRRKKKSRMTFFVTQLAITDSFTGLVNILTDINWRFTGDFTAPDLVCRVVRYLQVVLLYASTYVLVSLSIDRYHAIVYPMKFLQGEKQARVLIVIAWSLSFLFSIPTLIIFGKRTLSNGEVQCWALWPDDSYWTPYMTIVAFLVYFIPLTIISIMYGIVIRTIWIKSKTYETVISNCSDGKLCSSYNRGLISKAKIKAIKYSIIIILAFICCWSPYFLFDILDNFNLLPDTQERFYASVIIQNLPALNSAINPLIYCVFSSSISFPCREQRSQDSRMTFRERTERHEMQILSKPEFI

Compound	activity change, negative = inhibition	Potency
O=C(NCC1COc2ccccc2O1)C1CCCN(S(=O)(=O)c2cnc[nH]2)C1 (stereo not drawn)	inactive: 9.27% [at 46.1 µM]	–
CC(C)(C)N1C(=O)c2ccc(C(=O)Nc3nccs3)cc2C1=O	inactive: 13.6% [at 46.1 µM]	–
COc1ccc(C2OC(=O)CC2C(=O)NCc2ccc(Cl)cc2)cc1OC (stereo not drawn)	inactive: 3.85%	–
COc1ccc(NS(=O)(=O)c2cc(NC(=O)C3CCCO3)ccc2N2CCCCC2)cc1 (stereo not drawn)	–	active: 10 µM
Cc1ccc(C(C)C)c(OCCNC(=O)c2cncc(Br)c2)c1	–	inconclusive [inhibitor, partial curve]
CCOC(=O)c1ccc(NC(=O)CSc2n[nH]c(-c3ccncc3)n2)cc1	–	inconclusive [inhibitor, full curve, poor fit]
CCC1CCCCN1Cc1nc2c(c(=O)n(C)c(=O)n2C)n1CCC(C)C (stereo not drawn)	–	inconclusive [inhibitor, single point]
Cc1cc(C(=O)CSc2nc3ccc(Cl)cc3[nH]2)c(C)n1C	inactive: -19% [at 46.1 µM]	–
Cc1ccc(CNC(=O)c2cc3c(=O)n(C)c4ccccc4c3n2C)cc1	–	inconclusive [inhibitor, single point]
C=CCNC(=O)COc1ccccc1C#N	inactive: 6.82%	–
COc1cccc(CNC(=O)CCC2CCCN(C(=O)c3cccc4c(C)c(C)[nH]c34)C2)c1 (stereo not drawn)	inactive: 20.1%	–
CC(=O)Nc1nnc(SCc2cccc(F)c2)s1	inactive: -4.06%	–
COCCNC(=O)CN(C(=O)CCC(=O)Nc1ccccn1)c1ccc(F)cc1	–	inconclusive [activator, single point]
CCOc1ccccc1N1CCN(C(=O)C(Sc2ccccc2)c2ccccc2)CC1 (stereo not drawn)	–	inconclusive [inhibitor, single point]
O=c1ccc2ccc(O)c(O)c2o1	–	inconclusive [inhibitor, single point]
COC(=O)c1sccc1NC(=O)c1cnc2cc(C)nn2c1C	inactive: 5.9%	–
O=C1C=CC(=O)C(C2=C3C(=O)N(CCc4ccccc4)CC(=O)N3CCC2)=C1	–	active: 10 µM
COC(=O)c1c(NC(=O)c2ccccc2)sc(C(=O)c2ccccc2)c1C	inactive: -14.7% [at 46.1 µM]	–
N=C1SCC(=O)N1c1nc(-c2ccccc2)cs1	–	inconclusive [inhibitor, single point]

Compound	activity change, negative = inhibition	Potency
CC(=O)Nc1sc2c(c1C(c1cccc(F)c1)N1CCN(CCO)CC1)CCCC2 (stereo not drawn)	–	inconclusive [inhibitor, single point]
CCN(CC)c1ccc(/C=N/NC(=O)OC)c(O)c1	inactive: -12.6% [at 46.1 µM]	–
Cc1ccc2nc(-c3ccco3)c(Nc3ccccc3)n2c1	inactive: -8.62% [at 46.1 µM]	–
CCn1cc(C(=O)NCc2ccco2)c(=O)c2cc(S(=O)(=O)N3CCC(C)CC3)ccc21	–	inconclusive [inhibitor, partial curve, poor fit]
O=c1c2ccccc2c(/C=N/c2ncn[nH]2)c(O)n1Cc1ccccc1	–	inconclusive [inhibitor, single point]
N#Cc1cc(C(=O)c2cc(F)ccc2O)cn(-c2nccs2)c1=O	inactive: -11.8%	–
CN(C)CCNc1nc2sc3c(c2c(=O)n1CCc1ccccc1)CCCCC3	–	inconclusive [activator, single point]
COC(=O)c1sccc1NC(=O)CSc1ccccc1NC(=O)CNC(C)C	–	inconclusive [inhibitor, single point]
COc1cccc(/C=N/NC(=S)NC2CC3CCC2C3)c1OC (stereo not drawn)	–	inconclusive [activator, single point]
Cc1ccc(C(=O)O/N=C/c2c(N3CCOCC3)n(C)c3ccccc23)cc1	–	inconclusive [inhibitor, single point]
CC(=O)c1c(C)nc(-c2ccccc2)nc1NC(=O)C(C)C	–	inconclusive [activator, partial curve]
O=C1OC(/C=C/c2ccccc2)=NC/1=C\c1cccnc1	inactive: -5.43%	–
COCCn1c(=S)[nH]c2cc(C(=O)NC(C)C)ccc2c1=O	–	inconclusive [activator, single point]
CCn1c2ccccc2c2cc(NC(=O)c3coc(=O)c(Br)c3)ccc21	–	inconclusive [activator, single point]
CCOc1cc(CN2CCN(c3cccc(C(F)(F)F)c3)CC2)ccc1O	inactive: -22.6% [at 46.1 µM]	–
CC(=O)NCCc1c[nH]c2ccc(O)cc12	–	inconclusive [inhibitor, single point]
CCCc1[nH]nc2c1C(c1ccc(OCCN3CCOCC3)c(OC)c1)C(C#N)=C(N)O2 (stereo not drawn)	inactive: 14.9% [at 46.1 µM]	–
Cc1ccccc1OCc1nnc(SCc2nc3ccccc3c(=O)[nH]2)n1C	inactive: 4.45%	–
CC1CCCN(C(=O)Cc2cn(Cc3cccc(Cl)c3)c3ccccc23)C1 (stereo not drawn)	–	inconclusive [inhibitor, single point]
